Experimental data published in the supplement of paper PMC4967469.

What was measured:
Assay in all cases: Viability of human cancer cell lines after 72 h of drug (GDSC screen)
XMD11-85h = compound: COc1cc(C(=O)NC2CCN(C)CC2)ccc1Nc1ncc2c(n1)N(C1CCCC1)CCC(=O)N2C(C)C [XMD11-85h]; details: top dose 10 µM; top dose inferred
Description: (§1)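 Human cancer cell lines in 384-well plates, medium with 10% serum, drug for 72 h over a 256-fold dose range (nine 2-fold or five 4-fold steps up to the top dose). Adherent lines were fixed and stained with the nucleic acid dye Syto60, suspension lines read with resazurin; signal relative to control wells, capped at 0 and 100%. One two-parameter sigmoid per drug and line, fitted in a mixed model over all curves with the slope shared within a line.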

AZD6482 = compound: Cc1cc([C@@H](C)Nc2ccccc2C(=O)O)c2nc(N3CCOCC3)cc(=O)n2c1 [AZD6482]
Description: as §1

BMN-673 = compound: Cn1ncnc1[C@H]1c2n[nH]c(=O)c3cc(F)cc(c23)N[C@@H]1c1ccc(F)cc1 [BMN-673]; details: top dose 10 µM; top dose inferred
Description: as §1

MLN4924 = compound: NS(=O)(=O)OC[C@@H]1C[C@@H](n2ccc3c(N[C@H]4CCc5ccccc54)ncnc32)C[C@@H]1O [MLN4924]; details: top dose 1 µM; top dose inferred
Description: as §1

[1] = top dose 5 µM, screen: GDSC drug entry 1066, top dose inferred
[2] = top dose 5.12 µM, screen: GDSC drug entry 156

Row | Cell Line | AUC (XMD11-85h) | IC50 (XMD11-85h) | AUC (AZD6482; [1]) | IC50 (AZD6482; [1]) | AUC (AZD6482; [2]) | IC50 (AZD6482; [2]) | AUC (BMN-673) | IC50 (BMN-673) | AUC (MLN4924) | IC50 (MLN4924)
1 | MDA-MB-175-VII (breast, adherent) | 0.986 | > 10 µM | 0.854 | 4.59 µM | 0.901 | > 5.12 µM | 0.948 | > 10 µM | 0.958 | > 1 µM
2 | MDA-MB-330 (breast, adherent) | 0.982 | > 10 µM | – | – | 0.852 | 4.83 µM | 0.883 | > 10 µM | 0.892 | > 1 µM
3 | MFE-296 (endometrium, adherent) | 0.948 | > 10 µM | 0.943 | > 5 µM | 0.731 | 1.54 µM | 0.636 | 1.53 µM | 0.68 | 0.208 µM
4 | MFE-319 (endometrium, adherent) | 0.965 | > 10 µM | 0.901 | > 5 µM | 0.923 | > 5.12 µM | 0.943 | > 10 µM | 0.987 | > 1 µM
5 | MFM-223 (breast, adherent) | 0.987 | > 10 µM | 0.86 | 4.11 µM | 0.989 | > 5.12 µM | 0.98 | > 10 µM | 0.812 | 0.53 µM
6 | MHH-ES-1 (Ewing sarcoma, adherent) | 0.914 | > 10 µM | 0.923 | > 5 µM | 0.959 | > 5.12 µM | 0.074 | < 0.0391 µM | 0.607 | 0.123 µM
7 | MKN7 (stomach, adherent) | 0.981 | > 10 µM | 0.867 | > 5 µM | – | – | 0.931 | > 10 µM | 0.971 | > 1 µM
8 | MMAC-SF (melanoma, adherent) | 0.97 | > 10 µM | – | – | 0.885 | > 5.12 µM | 0.947 | > 10 µM | 0.879 | > 1 µM
9 | MOG-G-CCM (glioma, adherent) | 0.935 | > 10 µM | 0.865 | > 5 µM | 0.772 | 2.31 µM | 0.85 | 9.56 µM | 0.869 | > 1 µM
10 | MOG-G-UVW (glioma, adherent) | 0.962 | > 10 µM | 0.922 | > 5 µM | 0.943 | > 5.12 µM | 0.468 | 0.514 µM | 0.613 | 0.127 µM
11 | MZ1-PC (pancreas, adherent) | 0.963 | > 10 µM | 0.957 | > 5 µM | 0.836 | 4.62 µM | 0.814 | 7.2 µM | 0.664 | 0.2 µM
12 | Mo-T (hairy cell leukaemia, suspension) | 0.956 | > 10 µM | 0.782 | 2.14 µM | 0.988 | > 5.12 µM | 0.865 | 9.12 µM | 0.938 | > 1 µM
13 | NALM-6 (B-cell leukaemia, suspension) | 0.948 | > 10 µM | 0.897 | 4.42 µM | 0.636 | – | 0.828 | 4.85 µM | 0.92 | > 1 µM
14 | NAMALWA (Burkitt lymphoma, suspension) | 0.916 | > 10 µM | 0.976 | > 5 µM | 0.973 | > 5.12 µM | 0.613 | 1.21 µM | 0.896 | 0.883 µM
15 | NB1 (neuroblastoma, semi-adherent) | 0.964 | > 10 µM | 0.939 | > 5 µM | 0.907 | > 5.12 µM | 0.635 | 1.54 µM | 0.957 | > 1 µM
16 | NB5 (neuroblastoma, adherent) | 0.975 | > 10 µM | 0.878 | > 5 µM | 0.969 | > 5.12 µM | 0.466 | 0.504 µM | 0.694 | 0.22 µM
17 | NB10 (neuroblastoma, adherent) | 0.943 | > 10 µM | 0.983 | > 5 µM | 0.972 | > 5.12 µM | 0.161 | 0.059 µM | 0.672 | 0.186 µM
18 | NB13 (neuroblastoma, adherent) | 0.982 | > 10 µM | – | – | 0.971 | > 5.12 µM | 0.683 | 1.9 µM | 0.851 | 0.632 µM
19 | NB(TU)1-10 (neuroblastoma, adherent) | 0.992 | > 10 µM | 0.992 | > 5 µM | 0.929 | > 5.12 µM | 0.993 | > 10 µM | 0.992 | > 1 µM
20 | NB-4 (acute myeloid leukaemia, suspension) | 0.888 | 7.69 µM | 0.884 | 3.73 µM | 0.827 | 2.39 µM | 0.614 | 1.21 µM | 0.569 | 0.093 µM
21 | NCC021 (kidney, adherent) | 0.973 | > 10 µM | 0.722 | 1.5 µM | – | – | 0.857 | > 10 µM | 0.969 | > 1 µM
22 | NCI-H82 (small cell lung carcinoma, suspension) | 0.98 | > 10 µM | 0.947 | > 5 µM | 0.99 | > 5.12 µM | 0.958 | > 10 µM | 0.97 | > 1 µM
23 | NCI-H345 (small cell lung carcinoma, suspension) | 0.985 | > 10 µM | 0.986 | > 5 µM | 0.984 | > 5.12 µM | 0.982 | > 10 µM | 0.989 | > 1 µM
24 | NCI-H441 (lung adenocarcinoma, adherent) | 0.956 | > 10 µM | – | – | 0.958 | > 5.12 µM | 0.877 | > 10 µM | 0.893 | > 1 µM
25 | NCI-H446 (small cell lung carcinoma, semi-adherent) | 0.855 | 8.89 µM | 0.862 | 4.78 µM | 0.945 | > 5.12 µM | 0.97 | > 10 µM | 0.984 | > 1 µM
26 | NCI-H460 (large cell lung carcinoma, adherent) | 0.989 | > 10 µM | 0.903 | > 5 µM | 0.974 | > 5.12 µM | 0.263 | 0.142 µM | 0.905 | > 1 µM

IC50 is the fitted dose that halves viability relative to control wells, and lower means more sensitive; fits outside the tested doses are given as limits. AUC sums up the same curve from the lowest dose to the 256-fold higher top dose; it is 1 without any effect and falls as sensitivity rises. Where the top dose is marked as inferred, it comes from the curve model; the source does not state it. For some of these results: Where an entry number is given, a second screen of the drug exists; the two often differ.
